# Measurements taken from the supplement of paper PMC8728848.
# The other results are listed elsewhere or left out.
# Assays:
# Experiment in all cases: glycan array binding signal (z-score within array); higher = stronger binding
# Settings in all cases: glycan notation: IUPAC condensed, linker removed
# [1] = molecular target: Gal(b1-4)GlcNAc(b1-3)Gal(b1-4)Glc
# In short: (§1)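 Columns mapping to the same glycan were averaged after glycan names were converted to IUPAC-condensed notation. The data come from 3228 arrays in the Consortium for Functional Glycomics database, limited to those with an available protein sequence. Binding is reported as a within-array Z-score averaged across arrays of one protein sequence and across linkers.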
# [2] = molecular target: Gal(b1-4)GlcNAc(b1-3)Gal(b1-4)GlcNAc
# In short: as §1
# [3] = molecular target: Gal(b1-4)GlcNAc(b1-3)Gal(b1-4)GlcNAc(b1-2)Man(a1-3)[Gal(b1-4)GlcNAc(b1-3)Gal(b1-4)GlcNAc(b1-2)Man(a1-6)]Man(b1-4)GlcNAc(b1-4)GlcNAc
# In short: as §1
# [4] = molecular target: Gal(b1-4)GlcNAc(b1-3)Gal(b1-4)GlcNAc(b1-2)Man(a1-3)[Gal(b1-4)GlcNAc(b1-3)Gal(b1-4)GlcNAc(b1-2)Man(a1-6)]Man(b1-4)GlcNAc(b1-4)[Fuc(a1-6)]GlcNAc
# In short: as §1
# [5] = molecular target: Gal(b1-4)GlcNAc(b1-3)Gal(b1-4)GlcNAc(b1-2)[Gal(b1-4)GlcNAc(b1-3)Gal(b1-4)GlcNAc(b1-6)]Man(a1-6)[Gal(b1-4)GlcNAc(b1-3)Gal(b1-4)GlcNAc(b1-2)Man(a1-3)]Man(b1-4)GlcNAc(b1-4)GlcNAc
# In short: as §1
# [6] = molecular target: Gal(b1-4)GlcNAc(b1-3)Gal(b1-4)GlcNAc(b1-2)[Gal(b1-4)GlcNAc(b1-3)Gal(b1-4)GlcNAc(b1-6)]Man(a1-6)[Gal(b1-4)GlcNAc(b1-3)Gal(b1-4)GlcNAc(b1-2)Man(a1-3)]Man(b1-4)GlcNAc(b1-4)[Fuc(a1-6)]GlcNAc
# In short: as §1
# [7] = molecular target: Gal(b1-4)GlcNAc(b1-3)Gal(b1-4)GlcNAc(b1-3)Gal(b1-4)GlcNAc
# In short: as §1
# [8] = molecular target: Gal(b1-4)GlcNAc(b1-3)Gal(b1-4)GlcNAc(b1-3)Gal(b1-4)GlcNAc(b1-2)Man(a1-3)[Gal(b1-4)GlcNAc(b1-3)Gal(b1-4)GlcNAc(b1-3)Gal(b1-4)GlcNAc(b1-2)Man(a1-6)]Man(b1-4)GlcNAc(b1-4)GlcNAc
# In short: as §1
# [9] = molecular target: Gal(b1-4)GlcNAc(b1-3)Gal(b1-4)GlcNAc(b1-3)Gal(b1-4)GlcNAc(b1-2)Man(a1-3)[Gal(b1-4)GlcNAc(b1-3)Gal(b1-4)GlcNAc(b1-3)Gal(b1-4)GlcNAc(b1-2)Man(a1-6)]Man(b1-4)GlcNAc(b1-4)[Fuc(a1-6)]GlcNAc
# In short: as §1
# [10] = molecular target: Gal(b1-4)GlcNAc(b1-3)Gal(b1-4)GlcNAc(b1-3)Gal(b1-4)GlcNAc(b1-2)[Gal(b1-4)GlcNAc(b1-3)Gal(b1-4)GlcNAc(b1-3)Gal(b1-4)GlcNAc(b1-6)]Man(a1-6)[Gal(b1-4)GlcNAc(b1-3)Gal(b1-4)GlcNAc(b1-3)Gal(b1-4)GlcNAc(b1-2)Man(a1-3)]Man(b1-4)GlcNAc(b1-4)[Fuc(a1-6)]GlcNAc
# In short: as §1
# [11] = molecular target: Gal(b1-4)GlcNAc(b1-3)Gal(b1-4)GlcNAc(b1-3)Gal(b1-4)GlcNAc(b1-3)Gal(b1-4)GlcNAc(b1-2)Man(a1-3)[Gal(b1-4)GlcNAc(b1-3)Gal(b1-4)GlcNAc(b1-3)Gal(b1-4)GlcNAc(b1-3)Gal(b1-4)GlcNAc(b1-2)Man(a1-6)]Man(b1-4)GlcNAc(b1-4)GlcNAc
# In short: as §1
# [12] = molecular target: Gal(b1-4)GlcNAc(b1-3)Gal(b1-4)GlcNAc(b1-3)Gal(b1-4)GlcNAc(b1-3)Gal(b1-4)GlcNAc(b1-2)Man(a1-3)[Gal(b1-4)GlcNAc(b1-3)Gal(b1-4)GlcNAc(b1-3)Gal(b1-4)GlcNAc(b1-3)Gal(b1-4)GlcNAc(b1-2)Man(a1-6)]Man(b1-4)GlcNAc(b1-4)[Fuc(a1-6)]GlcNAc
# In short: as §1
# [13] = molecular target: Gal(b1-4)GlcNAc(b1-3)Gal(b1-4)GlcNAc(b1-3)Gal(b1-4)GlcNAc(b1-3)Gal(b1-4)GlcNAc(b1-2)[Gal(b1-4)GlcNAc(b1-3)Gal(b1-4)GlcNAc(b1-3)Gal(b1-4)GlcNAc(b1-3)Gal(b1-4)GlcNAc(b1-6)]Man(a1-6)[Gal(b1-4)GlcNAc(b1-3)Gal(b1-4)GlcNAc(b1-3)Gal(b1-4)GlcNAc(b1-3)Gal(b1-4)GlcNAc(b1-2)Man(a1-3)]Man(b1-4)GlcNAc(b1-4)[Fuc(a1-6)]GlcNAc
# In short: as §1
# [14] = molecular target: Gal(b1-4)GlcNAc(b1-3)Gal(b1-4)GlcNAc(b1-3)Gal(b1-4)GlcNAc(b1-3)Gal(b1-4)GlcNAc(b1-3)Gal(b1-4)GlcNAc(b1-2)Man(a1-3)[Gal(b1-4)GlcNAc(b1-3)Gal(b1-4)GlcNAc(b1-3)Gal(b1-4)GlcNAc(b1-3)Gal(b1-4)GlcNAc(b1-3)Gal(b1-4)GlcNAc(b1-2)Man(a1-6)]Man(b1-4)GlcNAc(b1-4)GlcNAc
# In short: as §1
# [15] = molecular target: Gal(b1-4)GlcNAc(b1-3)Gal(b1-4)GlcNAc(b1-3)Gal(b1-4)GlcNAc(b1-3)Gal(b1-4)GlcNAc(b1-3)Gal(b1-4)GlcNAc(b1-2)Man(a1-3)[Gal(b1-4)GlcNAc(b1-3)Gal(b1-4)GlcNAc(b1-3)Gal(b1-4)GlcNAc(b1-3)Gal(b1-4)GlcNAc(b1-3)Gal(b1-4)GlcNAc(b1-2)Man(a1-6)]Man(b1-4)GlcNAc(b1-4)[Fuc(a1-6)]GlcNAc
# In short: as §1
# [16] = molecular target: Gal(b1-4)GlcNAc(b1-3)Gal(b1-4)GlcNAc(b1-3)Gal(b1-4)GlcNAc(b1-3)Gal(b1-4)GlcNAc(b1-3)Gal(b1-4)GlcNAc(b1-2)[Gal(b1-4)GlcNAc(b1-3)Gal(b1-4)GlcNAc(b1-3)Gal(b1-4)GlcNAc(b1-3)Gal(b1-4)GlcNAc(b1-3)Gal(b1-4)GlcNAc(b1-6)]Man(a1-6)[Gal(b1-4)GlcNAc(b1-3)Gal(b1-4)GlcNAc(b1-3)Gal(b1-4)GlcNAc(b1-3)Gal(b1-4)GlcNAc(b1-3)Gal(b1-4)GlcNAc(b1-2)Man(a1-3)]Man(b1-4)GlcNAc(b1-4)[Fuc(a1-6)]GlcNAc
# In short: as §1
# [17] = molecular target: Gal(b1-4)GlcNAc(b1-3)Gal(b1-4)GlcNAc(b1-3)Gal(b1-4)GlcNAc(b1-3)Gal(b1-4)GlcNAc(b1-3)Gal(b1-4)GlcNAc(b1-3)Gal(b1-4)GlcNAc(b1-2)Man(a1-3)[Gal(b1-4)GlcNAc(b1-3)Gal(b1-4)GlcNAc(b1-3)Gal(b1-4)GlcNAc(b1-3)Gal(b1-4)GlcNAc(b1-3)Gal(b1-4)GlcNAc(b1-3)Gal(b1-4)GlcNAc(b1-2)Man(a1-6)]Man(b1-4)GlcNAc(b1-4)GlcNAc
# In short: as §1
# [18] = molecular target: Gal(b1-4)GlcNAc(b1-3)Gal(b1-4)GlcNAc(b1-3)GalNAc
# In short: as §1
# [19] = molecular target: Gal(b1-4)GlcNAc(b1-3)Gal(b1-4)GlcNAc(b1-3)[Gal(b1-4)GlcNAc(b1-3)Gal(b1-4)GlcNAc(b1-6)]GalNAc
# In short: as §1
binder,measurement,setting,value
OGAN (protein) MVQKESQATLEERESELSSNPAASAGASLEPPAAPAPGEDNPAGAGGAAVAGAAGGARRFLCGVVEGFYGRPWVMEQRKELFRRLQKWELNTYLYAPKDDYKHRMFWREMYSVEEAEQLMTLISAAREYEIEFIYAISPGLDITFSNPKEVSTLKRKLDQVSQFGCRSFALLFNDIDHNMCAADKEVFSSFAHAQVSITNEIYQYLGEPETFLFCPTEYCGTFCYPNVSQSPYLRTVGEKLLPGIEVLWTGPKVVSKEIPVESIEEVSKIIKRAPVIWDNIHANDYDQKRLFLGPYKGRSTELIPRLKGVLTNPNCEFEANYVAIHTLATWYKSNMNGVRKDVVMTDSEDSTVSIQIKLENEGSDEDIETDVLYSPQMALKLALTEWLQEFGVPHQY,glycan array binding signal (z-score),[1],-0.07
same,glycan array binding signal (z-score),[2],-0.047
same,glycan array binding signal (z-score),[3],-0.028
same,glycan array binding signal (z-score),[4],-0.037
same,glycan array binding signal (z-score),[5],-0.025
same,glycan array binding signal (z-score),[6],-0.01
same,glycan array binding signal (z-score),[7],-0.079
same,glycan array binding signal (z-score),[8],-0.025
same,glycan array binding signal (z-score),[9],-0.038
same,glycan array binding signal (z-score),[10],-0.03
same,glycan array binding signal (z-score),[11],-0.049
same,glycan array binding signal (z-score),[12],-0.013
same,glycan array binding signal (z-score),[13],-0.059
same,glycan array binding signal (z-score),[14],-0.05
same,glycan array binding signal (z-score),[15],-0.001
same,glycan array binding signal (z-score),[16],-0.031
same,glycan array binding signal (z-score),[17],0.004
same,glycan array binding signal (z-score),[18],-0.058
same,glycan array binding signal (z-score),[19],-0.027
